# Laboratory results published in the supplement of paper PMC11369174, “Proteome-scale characterisation of motif-based interactome rewiring by disease mutations” (Molecular Systems Biology, 2024).
# The list shows a part of the results. These are enrichments in a pooled selection; single values are uncertain.
# T1: DOK1_PTB__Q99704_151_256
# T1 chain: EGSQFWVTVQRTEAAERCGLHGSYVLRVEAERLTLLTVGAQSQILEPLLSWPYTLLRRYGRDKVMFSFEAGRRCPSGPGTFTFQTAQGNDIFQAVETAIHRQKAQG
# T2: IRS2_PTB__Q9Y4H2_188_304
# T2 chain: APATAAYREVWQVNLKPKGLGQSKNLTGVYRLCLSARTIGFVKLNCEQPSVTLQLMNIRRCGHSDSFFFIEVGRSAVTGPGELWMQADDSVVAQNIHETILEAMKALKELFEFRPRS
# T3: MSN_FERM_1_P26038_1_322
# T3 chain: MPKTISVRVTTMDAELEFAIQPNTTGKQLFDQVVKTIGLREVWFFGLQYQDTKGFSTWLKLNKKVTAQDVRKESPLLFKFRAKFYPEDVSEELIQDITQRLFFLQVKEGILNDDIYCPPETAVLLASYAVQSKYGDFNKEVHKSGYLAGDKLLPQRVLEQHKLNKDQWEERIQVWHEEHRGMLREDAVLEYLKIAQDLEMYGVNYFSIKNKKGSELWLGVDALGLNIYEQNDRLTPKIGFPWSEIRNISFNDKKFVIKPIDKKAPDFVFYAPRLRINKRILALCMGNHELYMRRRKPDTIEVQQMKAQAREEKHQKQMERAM
# T4: RDX_FERM_1_P35241_5_295
# T4 chain: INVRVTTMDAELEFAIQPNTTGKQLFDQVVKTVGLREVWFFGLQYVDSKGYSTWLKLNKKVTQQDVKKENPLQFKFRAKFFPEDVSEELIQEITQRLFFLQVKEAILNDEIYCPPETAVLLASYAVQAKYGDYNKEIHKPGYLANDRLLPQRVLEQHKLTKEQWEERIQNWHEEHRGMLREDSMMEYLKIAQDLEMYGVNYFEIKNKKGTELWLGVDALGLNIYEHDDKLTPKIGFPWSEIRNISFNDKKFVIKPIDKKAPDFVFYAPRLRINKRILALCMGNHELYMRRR
# T5: EIF3B_RRM__P55884_172_274
# T5 chain: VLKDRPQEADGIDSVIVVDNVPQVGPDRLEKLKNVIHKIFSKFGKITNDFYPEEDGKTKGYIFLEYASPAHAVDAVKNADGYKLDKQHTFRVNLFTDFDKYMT
# T6: EIF_DEAD__P60842_29_237
# T6 chain: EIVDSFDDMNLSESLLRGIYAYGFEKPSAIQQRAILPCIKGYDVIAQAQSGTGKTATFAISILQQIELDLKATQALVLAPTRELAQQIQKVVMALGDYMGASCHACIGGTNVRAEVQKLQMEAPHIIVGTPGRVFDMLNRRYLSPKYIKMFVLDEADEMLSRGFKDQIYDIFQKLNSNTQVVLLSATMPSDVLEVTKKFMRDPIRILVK
# T7: EPHA3_Pkinase__P29320_606_947
# T7 chain: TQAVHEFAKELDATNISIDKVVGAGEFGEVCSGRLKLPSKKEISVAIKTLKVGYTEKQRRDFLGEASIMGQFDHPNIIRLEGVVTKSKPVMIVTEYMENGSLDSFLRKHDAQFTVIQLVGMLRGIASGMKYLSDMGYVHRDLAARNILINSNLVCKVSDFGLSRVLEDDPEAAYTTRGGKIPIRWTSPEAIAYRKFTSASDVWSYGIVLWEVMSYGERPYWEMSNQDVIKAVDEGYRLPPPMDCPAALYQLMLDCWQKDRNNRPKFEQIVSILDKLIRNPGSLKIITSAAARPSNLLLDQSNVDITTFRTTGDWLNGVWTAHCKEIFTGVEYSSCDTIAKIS
# T8: EPHB2_Pkinase__P29323_604_898
# T8 chain: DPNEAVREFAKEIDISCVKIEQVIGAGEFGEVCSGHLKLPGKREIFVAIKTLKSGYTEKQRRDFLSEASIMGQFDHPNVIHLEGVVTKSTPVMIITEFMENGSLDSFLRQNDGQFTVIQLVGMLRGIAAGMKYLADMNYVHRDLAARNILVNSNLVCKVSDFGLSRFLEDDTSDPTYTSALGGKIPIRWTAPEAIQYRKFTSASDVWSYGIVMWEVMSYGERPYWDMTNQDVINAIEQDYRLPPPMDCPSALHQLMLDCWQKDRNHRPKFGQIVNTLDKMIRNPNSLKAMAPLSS
# T9: EPS15_EH__P42566_121_215
# T9 chain: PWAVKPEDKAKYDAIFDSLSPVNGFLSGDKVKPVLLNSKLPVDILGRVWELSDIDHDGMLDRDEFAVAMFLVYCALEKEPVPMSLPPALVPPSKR
# Tests used:
# Assay in all cases: mean normalised NGS count of phage-displayed peptide after selection on bait (% of reads); baits are purified protein domains named by gene / domain / UniProt id / residues; peptides come from disordered regions of human proteins; higher = stronger enrichment / binding
# [1] = target: T1, DOK1_PTB__Q99704_151_256; details: replicate selections in which the peptide was seen: 5
# [2] = target: T2, IRS2_PTB__Q9Y4H2_188_304; details: replicate selections in which the peptide was seen: 4
# [3] = target: EZR_FERM_1_P15311_2_295; details: replicate selections in which the peptide was seen: 5
# Chain of EZR_FERM_1_P15311_2_295 (chain, as listed by the source): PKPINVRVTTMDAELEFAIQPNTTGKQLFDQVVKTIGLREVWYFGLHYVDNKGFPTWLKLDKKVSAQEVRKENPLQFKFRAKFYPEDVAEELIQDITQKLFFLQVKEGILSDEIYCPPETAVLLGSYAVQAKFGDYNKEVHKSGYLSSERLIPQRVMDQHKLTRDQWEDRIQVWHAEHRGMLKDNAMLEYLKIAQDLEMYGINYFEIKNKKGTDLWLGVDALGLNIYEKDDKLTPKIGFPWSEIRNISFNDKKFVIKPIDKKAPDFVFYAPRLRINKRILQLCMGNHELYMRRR
# [4] = target: T3, MSN_FERM_1_P26038_1_322; details: replicate selections in which the peptide was seen: 6
# [5] = target: T4, RDX_FERM_1_P35241_5_295; details: replicate selections in which the peptide was seen: 4
# [6] = target: T5, EIF3B_RRM__P55884_172_274
# [7] = target: EIF4E_eIF4E__P06730_1_217, P06730
# Chain of EIF4E_eIF4E__P06730_1_217, P06730 (P06730 whole entry): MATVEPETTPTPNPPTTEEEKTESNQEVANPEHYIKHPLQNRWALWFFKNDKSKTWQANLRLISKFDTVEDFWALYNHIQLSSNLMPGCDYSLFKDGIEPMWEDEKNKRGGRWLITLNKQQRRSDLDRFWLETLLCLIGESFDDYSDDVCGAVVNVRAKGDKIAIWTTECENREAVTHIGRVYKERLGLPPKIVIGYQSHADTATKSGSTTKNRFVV
# [8] = target: T6, EIF_DEAD__P60842_29_237
# [9] = target: T7, EPHA3_Pkinase__P29320_606_947
# [10] = target: T8, EPHB2_Pkinase__P29323_604_898
# [11] = target: T9, EPS15_EH__P42566_121_215
# [12] = replicate selections in which the peptide was seen: 3
# [13] = replicate selections in which the peptide was seen: 4
# [14] = replicate selections in which the peptide was seen: 6
# [15] = replicate selections in which the peptide was seen: 2
binder,measurement,setting,value
ALLGGSEIWRDIDFSH [TYR 187-202 mut P14679.A201S],mean normalised NGS count,[1],6.03
ALLGGSEIWRDINFAH [TYR 187-202 mut P14679.D199N],mean normalised NGS count,[1],2.9
ALLGGYEIWRDIDFAH [TYR 187-202 mut P14679.S192Y],mean normalised NGS count,[1],0.34
WSWVEHQDDDKVLIYS [STAT2 612-627 mut P52630.C612W],mean normalised NGS count,[1],53.3
WKVLSSSGSEAAVPSV [PLEC 976-991 wt],mean normalised NGS count,[1],0.162
WRELLADGEFTHEMQV [ASXL1 320-335 mut Q8IXJ9.R323L],mean normalised NGS count,[1],9.86
VEVFSGDGWNYLLAFQ [WDFY3 2629-2644 mut Q8IZQ1.R2637W],mean normalised NGS count,[1],0.109
same,mean normalised NGS count,[2],21.7
NGWSQAYYFENPADSE [PANK2 355-370 mut Q9BZ23.R357W],mean normalised NGS count,[1],0.278
same,mean normalised NGS count,[3],0.22
same,mean normalised NGS count,[4],0.345
same,mean normalised NGS count,[5],0.175
WSLPPWLPLGLLLWSG [OSTM1 12-27 mut Q86WC4.C12W],mean normalised NGS count,[6]; [12],1.9
VRNWTDLENSIVSVER [ABCC6 1220-1235 wt],mean normalised NGS count,[6]; [13],0.326
SLKDRIERRRAERAEQ [TNNT2 132-147 wt],mean normalised NGS count,[6]; [13],1.23
SMGFSDEGGWLTRLLQ [SQSTM1 403-418 wt],mean normalised NGS count,[6]; [14],48.4
SMGFSDEGSWLTRLLQ [SQSTM1 403-418 mut Q13501.G411S],mean normalised NGS count,[6]; [14],22
STGFSDEGGWLTRLLQ [SQSTM1 403-418 mut Q13501.M404T],mean normalised NGS count,[6]; [14],14.2
LISLPAVPQGGSQPGP [SZT2 1834-1849 mut Q5T011.R1839C],mean normalised NGS count,[7]; [15],0.501
AAADIISSLSEDQVPG [PIEZO2 2216-2231 mut Q9H5I5.T2221I],mean normalised NGS count,[7]; [15],0.0561
LIRTTFTSAQLKELER [PHOX2A 100-115 mut Q99453.R100L],mean normalised NGS count,[7]; [12],0.0687
TPALRTPSEYARPHVM [ATN1 1250-1265 mut Q9P2R6.L1256P],mean normalised NGS count,[7]; [12],0.259
LIRTTFTSAQLKELER [PHOX2B 100-115 mut Q99453.R100L],mean normalised NGS count,[7]; [12],0.0687
TPALRTPSEYARPHVM [RERE 1250-1265 mut Q9P2R6.L1256P],mean normalised NGS count,[7]; [12],0.259
LESSQVKYLARELIEL [TFG 97-112 mut Q92734.R106C],mean normalised NGS count,[7]; replicate selections in which the peptide was seen: 5,3.14
PSFYDPQGPWALAWEE [NLRP12 301-316 mut P59046.H304Y],mean normalised NGS count,[7]; [14],0.376
LESSQVKYLRRELIEL [TFG 97-112 wt],mean normalised NGS count,[7]; [14],70.3
QVKYLARELIELRNKV [TFG 101-116 mut Q92734.R106C],mean normalised NGS count,[7]; [14],2.37
ALLLPPSPRPSPRVHL [BCOR 330-345 wt],mean normalised NGS count,[8]; [15],0.119
VKIERSDRIYWYWPED [TTN 2116-2131 wt],mean normalised NGS count,[8]; [12],0.00832
LSDRIYWYWPEDNVAE [TTN 2120-2135 mut Q8WZ42.R2120L],mean normalised NGS count,[8]; [12],15.2
WLFHTQQLLQMQPKVL [KMT2D 3513-3528 mut O14686.L3525P],mean normalised NGS count,[8]; [13],3.28
VKIERSDQIYWYWPED [TTN 2116-2131 mut Q8WZ42.R2123Q],mean normalised NGS count,[8]; [14],32.6
ADALWWRLITLTTIGY [KCNQ2 265-280 mut O43526.G271R],mean normalised NGS count,[9]; [15],10.9
EVARKLVIIDSDLERA [TPM1 164-179 mut P09493.E173D],mean normalised NGS count,[9]; [15],0.144
same,mean normalised NGS count,[10]; [12],0.491
LLQTMLITDTTNLSAL [HNF1A 518-533 mut P20823.P519L],mean normalised NGS count,[9]; [15],0.0528
same,mean normalised NGS count,[10]; [12],0.0583
NLYWLVSKLDRLEASS [RYR1 542-557 mut P21817.D544Y],mean normalised NGS count,[9]; [15],0.0383
MAQMAITAAGVAVGSA [CHCHD2P9 56-71 mut Q9Y6H1.T61I],mean normalised NGS count,[9]; [15],0.133
MAQMAITAAGVAVGSA [CHCHD10 56-71 mut Q9Y6H1.T61I],mean normalised NGS count,[9]; [15],0.133
VVDALLAQGLVVDVPA [INPP5E 488-503 wt],mean normalised NGS count,[9]; [15],0.639
same,mean normalised NGS count,[10]; [15],19
MAQMAITAAGVAVGSA [CHCHD2 56-71 mut Q9Y6H1.T61I],mean normalised NGS count,[9]; [15],0.133
WLSHYWIPKWINATDP [ASNS 532-547 mut P08243.M538I],mean normalised NGS count,[9]; [12],0.51
same,mean normalised NGS count,[10]; [12],9.77
TVAKLVEAHTNFGFQP [SCNN1B 577-592 mut P51168.E580K],mean normalised NGS count,[9]; [12],0.873
WVAHRTAQHLSATVAE [ZNF526 155-170 mut Q8TF50.K160T],mean normalised NGS count,[9]; [12],6.98
same,mean normalised NGS count,[10]; [12],0.325
HLAALLESGLSKEALI [HNF1A 12-27 mut P20823.L12H],mean normalised NGS count,[10]; [15],3.78
LLNSALSENPVVLQAT [BRCA2 134-149 mut P51587.S142N],mean normalised NGS count,[10]; [15],0.102
SLAAIEKRMAEKQARS [SCN5A 20-35 mut Q14524.G35S],mean normalised NGS count,[10]; [15],0.103
WQFFSALFSSSSSPPP [MAPK8IP3 573-588 mut Q9UPT6.R578C],mean normalised NGS count,[10]; [15],1.72
YTDAPFPKWMHWALIA [ELOVL4 238-253 wt],mean normalised NGS count,[10]; [12],0.0726
NFDNPIYQKTTEDEVH [LDLR 822-837 mut P01130.V827I],mean normalised NGS count,[11]; [15],0.00756
SHEWRAFLQAILEHEE [SMARCA2 1210-1225 mut P51531.R1213W],mean normalised NGS count,[11]; [15],1.55
SHEWRAFLQAILEHEE [SMARCA4 1210-1225 mut P51531.R1213W],mean normalised NGS count,[11]; [15],1.55
SEQNPFLFQEGKLFEM [ANK2 3096-3111 wt],mean normalised NGS count,[11]; [15],2.8
DFFLQSLYSLTGLDAG [SLC26A1 552-567 wt],mean normalised NGS count,[11]; [15],0.94
RAYLQSITPQGYSDSE [ZEB2 1110-1125 wt],mean normalised NGS count,[11]; [12],0.0629
INSINFDNPFYQKTTE [LDLR 818-833 mut P01130.V827F],mean normalised NGS count,[11]; [12],0.0501
KLEHSNNPFNVYIESD [KCNE1 70-85 mut P15382.D76N],mean normalised NGS count,[11]; [12],0.358
GTPTSEQNPFLFQEGK [ANK2 3092-3107 wt],mean normalised NGS count,[11]; [12],0.13
GEQNPFLFQEGKLFEM [ANK2 3096-3111 mut Q01484.S3096G],mean normalised NGS count,[11]; [12],0.0121
